This is an account of results in article PMC4336329 (PLoS ONE, 2015).

Molecules are shown by their SMILES. The campaign covered roughly 310,000 compounds. About 14,000 (4.5%) showed an effect of 50% or more. Effects have a minus sign here. This is one part of the list.
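Note: peak tail current of the secondary pulse compared with the same well before compound.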

In this experiment the target is human ether-à-go-go-related gene (hERG) potassium channel (human, UniProt Q12809). As to the kind of experiment: primary screen, population patch clamp on CHO cells stably expressing hERG.
Sequence of human ether-à-go-go-related gene (hERG) potassium channel (Q12809 whole entry, looked up): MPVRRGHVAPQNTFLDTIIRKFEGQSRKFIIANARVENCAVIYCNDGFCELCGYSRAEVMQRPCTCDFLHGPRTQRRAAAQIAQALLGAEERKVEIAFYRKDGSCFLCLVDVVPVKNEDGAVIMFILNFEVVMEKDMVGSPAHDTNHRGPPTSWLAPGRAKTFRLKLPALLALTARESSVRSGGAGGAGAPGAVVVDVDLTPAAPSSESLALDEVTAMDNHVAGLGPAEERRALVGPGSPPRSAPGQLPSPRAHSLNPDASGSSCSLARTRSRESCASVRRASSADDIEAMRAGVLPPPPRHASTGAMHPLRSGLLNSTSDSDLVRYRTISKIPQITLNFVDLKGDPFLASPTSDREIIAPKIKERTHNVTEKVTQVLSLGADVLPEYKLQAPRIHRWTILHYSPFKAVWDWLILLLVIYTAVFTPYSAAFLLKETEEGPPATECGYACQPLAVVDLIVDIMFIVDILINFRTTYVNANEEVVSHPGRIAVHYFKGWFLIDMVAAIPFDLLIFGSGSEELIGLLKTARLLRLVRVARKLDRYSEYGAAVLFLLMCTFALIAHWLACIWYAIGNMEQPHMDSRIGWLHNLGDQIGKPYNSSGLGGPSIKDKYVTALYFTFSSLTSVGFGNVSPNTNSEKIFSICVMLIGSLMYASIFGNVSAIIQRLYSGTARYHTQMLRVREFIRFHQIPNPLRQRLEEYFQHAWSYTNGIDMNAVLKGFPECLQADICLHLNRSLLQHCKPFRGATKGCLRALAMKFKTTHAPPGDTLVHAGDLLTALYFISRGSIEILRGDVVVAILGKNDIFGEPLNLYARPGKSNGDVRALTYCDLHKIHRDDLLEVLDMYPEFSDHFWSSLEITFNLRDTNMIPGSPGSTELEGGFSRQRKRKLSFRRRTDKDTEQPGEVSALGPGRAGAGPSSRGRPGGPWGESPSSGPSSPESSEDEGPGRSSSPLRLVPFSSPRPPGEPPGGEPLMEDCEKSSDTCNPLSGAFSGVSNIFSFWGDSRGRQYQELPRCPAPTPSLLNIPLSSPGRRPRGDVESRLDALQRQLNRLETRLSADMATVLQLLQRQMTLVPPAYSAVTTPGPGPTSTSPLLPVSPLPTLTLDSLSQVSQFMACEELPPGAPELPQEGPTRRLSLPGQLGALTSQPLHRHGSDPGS
Regarding `O=C(O)c1ccc2cccc(Cl)c2c1O`, the “hERG current change (%, negative = inhibition) at 10uM” value stood at 5.75%.
With `C[C@@H]1C=C(C(=O)NCc2nc3ccccc3[nH]2)O[C@H](OCCCCO)C1`, the “hERG current change (%, negative = inhibition) at 10uM” value came out at 0.943%.
Consider `Nc1nonc1-n1nnc(C(=O)N/N=C/c2ccccc2F)c1CN1CCc2ccccc21`, for which the “hERG current change (%, negative = inhibition) at 10uM” value came to 7.9%.
To `O=C(Nc1ccccc1F)C1C2C=CC3(O2)C1C(=O)N(c1cccnc1)C3C(=O)NC1CCCCC1` (centres unmarked) belongs -9.01%; to `Cc1nnc(NCc2n[nH]c(=O)c3ccccc23)c2ccccc12`, 1.84%; to `CCN(CC(O)CON=C1c2ccccc2-c2ccccc21)S(=O)(=O)c1ccc(Cl)cc1` (centres unmarked), 2.32%.
Take `COCc1cc(/C=N\NC(=O)Cc2ccc(OC)cc2)ccc1OC`: the “hERG current change (%, negative = inhibition) at 10uM” value is reported as -4.03%.
Under `CCCn1nnnc1NCc1ccccc1Cl` stands 6.12%.
Consider `COC(=O)c1ccc(C(=O)OC)c(NC(=O)COC(=O)C23CC4CC(CC(O)(C4)C2)C3)c1`, for which the “hERG current change (%, negative = inhibition) at 10uM” value is on record as -19.2%.
In the case of `COc1ccc(C(=O)NCCCSC)cc1OC1CCN(C(C)C)CC1`, the “hERG current change (%, negative = inhibition) at 10uM” value is listed as -11.8%.
Under `CCOC(=O)C1CCCN(c2c(N3CCN(C4CCCCC4)CC3)c(=O)c2=O)C1` (centres unmarked) stands -55.8%; under `O=S(=O)(Nc1ccc2c(c1)OCCO2)c1ccc2oc3ccccc3c2c1`, -6.85%.
`Cc1ccc(Oc2ncc(CN3CC(C)OC(C)C3)s2)cc1` (centres unmarked): the “hERG current change (%, negative = inhibition) at 10uM” value is recorded as -7.61%.
Consider `O=C(O)C1CCCCC1C(=O)Nc1ccc2c(c1)OCCO2` (centres unmarked), for which the “hERG current change (%, negative = inhibition) at 10uM” value is 3.83%.
Under `CC1=Nc2cc(C(=O)O)ccc2Sc2ccc(Br)cc21` stands 11.6%.
With `Cc1ccccc1N1CCN(S(=O)(=O)c2ccc3ccccc3c2)CC1`, the “hERG current change (%, negative = inhibition) at 10uM” value came to 9.64%.
Consider `O=C(NCc1ccccc1Cl)C1CCCN(c2nc3ccsc3c(=O)s2)C1` (centres unmarked), for which the “hERG current change (%, negative = inhibition) at 10uM” value is listed as 10.1%.
For the molecule `COCCN(CCOC)C(=O)COC(=O)c1cc([N+](=O)[O-])ccc1Cl`, the “hERG current change (%, negative = inhibition) at 10uM” value is recorded as -17.3%.
Under `CCN(CC)S(=O)(=O)c1cccc(NC(=O)CN2C(=O)c3ccc([N+](=O)[O-])cc3C2=O)c1` stands -20.5%.
To `CCOC(=O)c1c(C)c(C(=O)Nc2cc(OC)ccc2OC)c(C)n1CC` belongs -22.5%.
To `N#CC(C#N)=Cc1ccc(N2CCCC2)cc1` belongs 4.17%.
Consider `CC(C)c1ccc(C(=O)N2CCN(c3cnn(C)c(=O)c3Cl)CC2)cc1`, for which the “hERG current change (%, negative = inhibition) at 10uM” value was -64.4%.
As to `CCOC(=O)C1CCN(CC(=O)c2c(C)[nH]c3cc(C)ccc23)CC1`, the “hERG current change (%, negative = inhibition) at 10uM” value is -60.5%.
Under `N#C/C(=C\Nc1ccccc1O)c1nc2ccccc2o1` stands -3.66%; under `Cc1ccc2nc(NC(=O)CSCC(=O)Nc3cc(C)on3)sc2c1`, 9.4%.
`COc1cccc(NC(=O)Nc2cc(C(=O)NCC3CCCO3)ccc2N2CC3CC(C2)c2cccc(=O)n2C3)c1` (centres unmarked): the “hERG current change (%, negative = inhibition) at 10uM” value is 4.39%.
Under `Cc1csc(=N)n1Cc1ccccc1` stands -1.23%.
As for `CCCCN1C(=O)Cc2c1nc(N)c1c(N)nc(N(CCC)CCC)c(C#N)c21`, the “hERG current change (%, negative = inhibition) at 10uM” value is 13.5%.
To `COc1ccc(OC)c2sc(N(CCN(C)C)C(=O)c3ccc4ccccc4c3)nc12.Cl` belongs -11.3%; to `Cc1cc(-c2csc(NC(=O)C3=COCCO3)n2)c(C)n1C`, 2.93%.
Turning to `COc1ccc(/C=C/c2cc(=O)c3cc(Cl)ccc3o2)cc1`, the “hERG current change (%, negative = inhibition) at 10uM” value amounted to 7.69%.
To `O=C(COc1ccc(F)cc1)N1CCC(c2ccccc2)C1` (centres unmarked) belongs -27.7%; to `NC(=S)N/N=C/c1coc2ccc(F)cc2c1=O`, 10.3%.
Under `COc1ccc(-c2cc(C(=O)O)c3c(C)nn(-c4ccccn4)c3n2)cc1` stands -4.84%.
To `C[C@@H](C(=O)Nc1cccc(S(=O)(=O)N2CCOCC2)c1)N1C(=O)C2CC=CCC2C1=O` (some centres unmarked) belongs 7.32%.
As to `COc1ccc(OC)c(NC(=O)Nc2ccc3[nH]ccc3c2)c1`, the “hERG current change (%, negative = inhibition) at 10uM” value is recorded as -0.435%.
Regarding `O=C(NCCCl)Nc1cccc(Br)c1`, the “hERG current change (%, negative = inhibition) at 10uM” value is recorded as 6.3%.
Take `Cc1cccc(N(C(=O)c2csnn2)C(C(=O)NC(C)(C)C)c2ccncc2)c1` (centres unmarked): the “hERG current change (%, negative = inhibition) at 10uM” value is given as 0.743%.
Consider `Cc1nnc(SCC(=O)NC2CCCc3c2cnn3-c2ccccc2F)o1` (centres unmarked), for which the “hERG current change (%, negative = inhibition) at 10uM” value is reported as 20.5%.
Regarding `CCn1c(CC(=O)Nc2ccc(C)cc2)nnc1SCC(=O)NCc1ccccc1`, the “hERG current change (%, negative = inhibition) at 10uM” value turned out to be 4.42%.
As to `N#Cc1cnn2c3c(cnc12)C(=O)N1CCc2ccccc2C1C3` (centres unmarked), the “hERG current change (%, negative = inhibition) at 10uM” value is -11.3%.
On to `CCOc1ccc(NC(=O)COC(=O)COc2cccc3c2OC(C)(C)C3)cc1`, for which the “hERG current change (%, negative = inhibition) at 10uM” value was determined as 9.57%.
Under `CCCC(=O)NC(NC(=S)Nc1c(C)n(C)n(-c2ccccc2)c1=O)C(Cl)(Cl)Cl` (centres unmarked) stands 0.602%; under `CN1CCN(C(=O)N2c3ccccc3CCc3ccccc32)CC1`, 11.9%.
Under `COC(=O)N/N=C/c1cc(C)n(-c2ccccc2)c1C` stands 16.1%; under `O=C(c1cccc(F)c1)N1CCN(S(=O)(=O)c2ccccc2)CC1`, 0.349%; under `O=C(Nc1ccc(C(=O)Oc2ccccc2)c(O)c1)c1ccco1`, 2.5%.
Under `COc1ccc(/C=C\C(=O)Oc2cccc(/C=N/NC(=O)Cc3ccc(OC)c(OC)c3)c2)cc1` stands 1.34%; under `CN(CCC#N)C(=S)NC(=O)c1ccc(S(=O)(=O)N2CCOCC2)cc1`, 23.7%; under `Cc1cc(=O)[nH]c(N2CCCC2)n1`, 22.4%.
As for `CC(C)Oc1ccc(C2CC(=O)N(c3cccc(/C=C/C(=O)O)c3)C2=O)cc1` (centres unmarked), the “hERG current change (%, negative = inhibition) at 10uM” value stood at 22.3%.
Turning to `O=C(NCCc1ccccc1)C(=O)N/N=C/c1ccc2c(c1)OCO2`, the “hERG current change (%, negative = inhibition) at 10uM” value was -7%.
For `COc1ccc(CC(=O)Nc2cccc(S(=O)(=O)N3CCCC3)c2)cc1OC`, the “hERG current change (%, negative = inhibition) at 10uM” value is -3.58%.
Under `CCCCCc1nnc(NC(=O)Cc2cccs2)s1` stands 4.6%.
To `Cc1ccnc(NS(=O)(=O)c2ccc(NC(=O)C3CCCCC3C(=O)O)cc2)n1` (centres unmarked) belongs 21.5%.
To `Cc1ccc2cc3cc(C(=O)NCCCN4CCc5ccccc5C4)oc3nc2c1` belongs -54.9%; to `CN(c1ccccc1)S(=O)(=O)c1ccc(C(=O)NCCc2ccccc2)cc1`, 19.6%.
As to `CCOc1ccc2nc(N3C(=O)CNC3=S)sc2c1`, the “hERG current change (%, negative = inhibition) at 10uM” value is 1.72%.
In the case of `CC1CCCC(NC(=O)C2N(CCCN3CCCC3)C(=O)C3C(C(=O)Nc4ccc(Cl)cc4)C4C=CC32O4)C1C` (centres unmarked), the “hERG current change (%, negative = inhibition) at 10uM” value is 1.89%.
As for `CN1C(=O)CSc2ccc(NC(=O)Nc3ccccn3)cc21`, the “hERG current change (%, negative = inhibition) at 10uM” value came to 2.02%.
To `COc1cc(C(=O)N2CCN(c3ccccc3)CC2)c([N+](=O)[O-])cc1OC` belongs 10.7%.
For the molecule `N#C/C(=C\Nc1ccc(F)c(Cl)c1)S(=O)(=O)c1ccccn1`, the “hERG current change (%, negative = inhibition) at 10uM” value was -6.01%.
With `O=C(c1cccc(Cl)c1)C1CCCN(S(=O)(=O)c2ccccc2)C1` (centres unmarked), the “hERG current change (%, negative = inhibition) at 10uM” value came to 4.23%.
Consider `CC(C)c1ccc(/C=C/c2ccc(=O)n(C)n2)cc1`, for which the “hERG current change (%, negative = inhibition) at 10uM” value is reported as -23.2%.
As for `COc1cc(C)c(C#N)c(OC)n1`, the “hERG current change (%, negative = inhibition) at 10uM” value is given as 7.96%.
Under `C=CCn1cc(C(=O)N2CCN(C)CC2)c(=O)c2cc(S(=O)(=O)N(CC)CC)ccc21` stands 3.85%; under `O=C(O)C(=O)O.O=[N+]([O-])c1cccc(CN2CCN(Cc3ccc(Br)cc3)CC2)c1`, -72.4%.
With `O=C(c1ccc2snnc2c1)N1CCCCC1`, the “hERG current change (%, negative = inhibition) at 10uM” value turned out to be 8.38%.
Under `c1ccc(-n2nnnc2NC2CCCCC2)cc1` stands 11%.
With `COc1ccc(C(=O)NNC(=S)NC(=O)c2cc(-c3ccccc3)nc3ccccc23)cc1`, the “hERG current change (%, negative = inhibition) at 10uM” value came out at 9.22%.
For `COc1cc(/C=N/NC(=O)c2cccc([N+](=O)[O-])c2)ccc1O`, the “hERG current change (%, negative = inhibition) at 10uM” value was -28.3%.
As for `C=CCOc1cccc(CNCCCN2CCOCC2)c1.Cl`, the “hERG current change (%, negative = inhibition) at 10uM” value is on record as 6.15%.
Under `O=C(O)C(Cc1ccccc1)n1cnnn1` (centres unmarked) stands 7.85%; under `CN1CC[n+]2c(CN3C(=O)c4ccccc4C3=O)csc21.[I-]`, 13.5%; under `Cn1c(=O)c(N)c2c3c(c(Br)ccc31)C(=O)c1ccccc1-2`, -16.6%.
On to `Clc1ccc(Oc2cccc(/C=N/n3cnnc3)c2)cc1`, for which the “hERG current change (%, negative = inhibition) at 10uM” value is recorded as -27.8%.
To `O=C(CCn1cccn1)Nc1ccc2c(c1)OCCO2` belongs 4.66%.
Turning to `COC(=O)c1ccccc1NC(=O)CN(Cc1ccccc1)S(C)(=O)=O`, the “hERG current change (%, negative = inhibition) at 10uM” value was -3.52%.
Under `O=C(CSc1ccc2ccccc2n1)NCCC1=CCCCC1` stands -0.0904%.
As to `Cn1c(SCC(=O)c2ccccc2)nnc1C1CC1`, the “hERG current change (%, negative = inhibition) at 10uM” value is listed as -1.41%.
Regarding `Cc1ccc(NS(=O)(=O)c2ccc(-c3cnc(C4CC4)o3)cc2)cc1`, the “hERG current change (%, negative = inhibition) at 10uM” value was 21.2%.
On to `CC(=O)Oc1ccc(C(=O)Nn2cnnc2)cc1`, for which the “hERG current change (%, negative = inhibition) at 10uM” value was -6.92%.
For `Cc1cc(C)c(NC(=O)CCCn2c(=O)oc3ccccc32)c(C)c1`, the “hERG current change (%, negative = inhibition) at 10uM” value is on record as -2.3%.
Under `CCOc1ccccc1NC(=O)CSc1nnc(-c2cccnc2)o1` stands -24.8%.
To `CC/C(=N\NC(=S)NC(C)C)c1ccc(OC)c(OC)c1` belongs -17.9%; to `COc1ccc(C(=O)Nc2cccc(C(C)=O)c2)cc1OC`, -2.4%.
For `Oc1ccccc1-c1cc(-c2ccccc2Cl)[nH]n1`, the “hERG current change (%, negative = inhibition) at 10uM” value stood at 5.05%.
To `CCOC(=O)/C(=C/c1ccc(Cl)cc1)NC(=O)c1ccco1` belongs -38.8%; to `COc1ccc(/C=C2\CCCc3c2nc2ccccc2c3C(=O)OCC(=O)c2c(N)n(C)c(=O)n(C)c2=O)cc1`, 3.7%.
